Among the data in PubChem BioAssay AID463173 (ICCB-Longwood Screening Facility, Harvard Medical School, 2010) are survival values, retold here.

SMILES strings stand for the structures. The campaign covered roughly 52,000 compounds. About 1,700 (3.3%) were called active. Rule as the data show it: active = survival mostly below about 52% (no sharp cut-off); inactive = mostly above about 56%. Some of the results follow.

This experiment has as its system Wild type. As to the kind of experiment: S. aureus survival, RN4220 and DeltatarO strains – OD600, teichoic acid synthesis inhibitors, primary screen (AID 463173). Conditions: S. aureus RN4220 wild type/DeltatarO growth, OD600, 18 h, active compounds read low, screened at 18.75 µg/mL (by protocol).
Turning to `CCCCOC(=O)OC1CCS(=O)(=O)C1` (stereo not given), the survival was inactive: 100%.

For `CCCN(CCC)C(=O)Cn1c(=O)n(-c2ccc(CC)cc2)c(=O)c2c3c(sc21)CCC3`, the survival is inactive: 97%.

`CCOC(=O)C1CCN(C(=O)c2ccc3c(=O)n4nc(Nc5ccccc5)sc4nc3c2)CC1`: the survival is inactive: 128%.

As to `COc1cc(O)ccc1-c1nc2ccc(Br)cn2c1Nc1ccccc1C`, the survival was inactive: 64%.

Regarding `O=C1O/C(=C/C(=O)N2CCOCC2)c2ccccc21`, the survival was inactive: 113%.

For `CCSc1ncc(Cl)c(C(=O)Nc2ccc(S(=O)(=O)N3CCCCC3CC)cc2)n1` (stereo not given), the survival was inactive: 83%.

`CCOc1ccc(NC(c2ccc(Cl)cc2)c2nnc(-c3cccc(F)c3)o2)cc1` (stereo not given): the survival is inactive: 86%.

Turning to `Cc1ccc(CN(C(=O)COc2cccc(Cl)c2)c2ccccn2)o1`, the survival is inactive: 79%.

Turning to `O=C(CSc1nccn1Cc1ccc(F)cc1)NC1CCCC1`, the survival was inactive: 68%.

In the case of `O=C(Nc1ccccc1F)C(c1ccccc1)N1Cc2ccccc2C1=O` (stereo not given), the survival is inactive: 75%.

`CCCNC(=O)c1cccc(C)c1`: the survival is inactive: 105%.

With `CCCOc1ccccc1C(=O)N1CCCCC1CCN1CCCCC1` (stereo not given), the survival is inactive: 87%.

Regarding `CCc1ccc(-n2nc(C)c3c(C(=O)Nc4ccc(Cl)cc4)cc(C)nc32)cc1`, the survival is inactive: 53%.

Consider `Cc1ccc(C)c(-c2ccc(=O)n(C(C)C(=O)Nc3ccccc3C(F)(F)F)n2)c1` (stereo not given), for which the survival is inactive: 81%.

For `CCCCNC(=O)CSc1nc(-c2ccc(OC)cc2)cc(C(F)(F)F)n1`, the survival is inactive: 72%.

Consider `CCC(=O)N1c2ccccc2CC1C(=O)NCCc1ccccc1OC` (stereo not given), for which the survival was inactive: 124%.

`COc1ccc(OC)c(-n2nnc(-c3nc(-c4ccc5c(c4)OCO5)no3)c2C)c1`: the survival was inactive: 70%.

As to `O=C(NC1CC(=O)N(c2cccc(F)c2)C1)c1ccc(S(=O)(=O)N2CCCCC2)cc1` (stereo not given), the survival was inactive: 77%.

Turning to `COc1ccc(C(=O)Nc2cc(-c3nc4ncccc4o3)ccc2C)cc1Br`, the survival was inactive: 75%.

`Cc1ccc(OCC(=O)Nc2nnc(SCc3cc(=O)n4cc(C)ccc4n3)s2)cc1`: the survival is active: 1%.

For the compound `Cc1noc(-c2ccc(N(C)Cc3ccccc3)c([N+](=O)[O-])c2)n1`, the survival is inactive: 79%.

On to `COC(=O)c1ccccc1NC(=O)CCn1c(=O)c2cccn2c2cccnc21`, for which the survival was inactive: 88%.

`CC(=O)Nc1ccc(C)cc1-c1nc2ccccc2n(Cc2cccc(Br)c2)c1=O`: the survival was inactive: 84%.

As to `COc1ccc(OCc2nc(-c3ccc(OC)c(OC)c3)no2)cc1`, the survival is inactive: 70%.

As to `CC(=O)Nc1c(C)nn(-c2ccccc2)c1N1CCC(C(=O)Nc2ccc(C)cc2Cl)CC1`, the survival is inactive: 71%.

For the compound `COc1cccc(-n2ccnc2SCC(=O)Nc2nc3ccc(C)cc3s2)c1`, the survival was inactive: 136%.

Take `CCc1ccc(NS(=O)(=O)c2cc(Br)cc3c2N(C(C)=O)CC3)cc1`: the survival was inactive: 102%.

Turning to `CC(=O)Nc1ccc(NC(=O)c2ccc3c(c2)CCN3S(=O)(=O)c2ccc(Cl)cc2)cc1`, the survival was inactive: 115%.

As for `COc1ccc(CCNc2oc(/C=C/c3ccc(OC)c(OC)c3)nc2C#N)cc1`, the survival was inactive: 105%.

For `CCCc1nc2nc(C)c(NS(=O)(=O)c3ccc(C)c(C)c3)c(=O)n2[nH]1`, the survival was inactive: 122%.

Take `CCOC(=O)C1CCCN(C(=O)c2ccc(C)c(NC(=O)c3nsc4ccccc34)c2)C1` (stereo not given): the survival is inactive: 123%.

`COc1cccc(NC(=O)CSc2nnc3[nH]c(=O)cc(-c4ccccc4)n23)c1`: the survival is inactive: 153%.

For `Cc1ccc2oc(-c3cc(NC(=O)Cc4ccccc4)ccc3Cl)nc2c1`, the survival is inactive: 70%.

For `c1ccc(Cn2nnnc2C(c2cccnc2)N2CCN(c3ccccc3)CC2)cc1` (stereo not given), the survival was inactive: 113%.

In the case of `CCCCOc1ccc(C(=O)NCCS(=O)(=O)N2CCN(c3ccccc3OC)CC2)cc1`, the survival is inactive: 69%.

Consider `CN(C)c1ccc(C(CNC(=O)c2ccccc2Cl)N2CCc3ccccc32)cc1` (stereo not given), for which the survival is inactive: 32%.

For the compound `Cc1ccc(NC(=O)Nc2nc3c(s2)CCCCCC3)cc1C`, the survival was inactive: 69%.

As for `O=C(COc1ccc(Cl)cc1)Nc1ccc(O)c(-c2nc3ccccc3s2)c1`, the survival was inactive: 69%.

Take `Cc1ccc(Cn2c(C(=O)O)c(CNCCc3cccs3)c3ccc(C)cc32)cc1`: the survival was inactive: 85%.

Take `O=C(NC1CC(=O)N(c2ccc(F)cc2)C1)c1ccc(S(=O)(=O)N2CCCC2)cc1` (stereo not given): the survival is inactive: 66%.

In the case of `CCN(C(=O)CSc1nc2ccccc2nc1Cc1cccc(OC)c1)c1cccc(C)c1`, the survival is active: -2%.

In the case of `COc1ccccc1NC(=O)c1ccc2[nH]c(C)cc(=O)c2c1`, the survival is inactive: 87%.

On to `Cc1cc(Br)ccc1NC(=O)COc1cc(=O)n(C)c2ccccc12`, for which the survival is inactive: 119%.

`Cc1ccccc1NC(=O)c1c(C)oc2ccc(O)c(CN3CCCC(C)C3)c12` (stereo not given): the survival is inactive: 115%.

In the case of `COc1cccc(CNC(=O)CSc2nc3ccccc3nc2Cc2ccccc2)c1`, the survival was inactive: 66%.

As for `O=c1c2sc3ccccc3c2n(Cc2ccccc2F)c(=O)n1-c1ccccc1Cl`, the survival is inactive: 81%.

Turning to `CCN(CC)S(=O)(=O)c1ccc2nc(NC(=O)c3ccccc3OC)sc2c1`, the survival is inactive: 113%.

For `Cc1nnc(N2CCC(C(=O)NCc3ccc(F)cc3)CC2)c2nn(-c3ccc(Cl)cc3)c(C)c12`, the survival was inactive: 126%.

As to `COc1cc2c(cc1OC)C(c1ccc(F)cc1)N(c1ccccc1)C(=O)C2` (stereo not given), the survival was inactive: 92%.

For the compound `Cc1ccc2c(c1)cc(C(=O)NCc1ccc(F)cc1)n2C`, the survival is inactive: 96%.

Take `NCC(O)CNCCc1ccccc1` (stereo not given): the survival was inactive: 107%.

Turning to `CCOCC(=O)Nc1ccc(-c2cn3c(C)csc3n2)cc1`, the survival was inactive: 134%.

With `Cc1ccc2[nH]c(=O)c(-c3nc4c(C)cccn4c3NCc3ccco3)cc2c1`, the survival was inactive: 96%.

`COc1ccccc1N1CCN(c2ccc(=O)n(CC(=O)O)n2)CC1`: the survival is inactive: 77%.

Consider `COc1cccc(CNc2ncnc3c2nnn3C)c1`, for which the survival was inactive: 79%.

Take `CNC(=O)C1CCC(Cn2c(=O)c3sccc3n(CC(=O)N3CCCC3)c2=O)CC1` (stereo not given): the survival was inactive: 77%.

As for `COc1cccc(-c2csc(N3CCN(C(=S)NCc4ccco4)CC3)n2)c1`, the survival is inactive: 108%.

On to `COc1ccccc1NC(=O)C1=C(C)NC(=S)NC1C` (stereo not given), for which the survival is inactive: 108%.

On to `CCN(C(=O)CSc1nc(-c2ccccc2)no1)c1cccc(C)c1`, for which the survival was active: -2%.

Regarding `Cc1cccc2cc(CN(C(=O)c3cccc(Cl)c3)c3ccccc3)c(=O)[nH]c12`, the survival was inactive: 94%.

On to `COc1cccc(C2CC(=O)Nc3c2c(=O)[nH]c2ncnn32)c1OC` (stereo not given), for which the survival was inactive: 74%.

For `COc1ccccc1Nc1nn2c(=O)c3ccc(C(=O)NC4CCC(C)CC4)cc3nc2s1` (stereo not given), the survival is inactive: 127%.

For `O=C(C1CCN(S(=O)(=O)c2ccc(Br)s2)CC1)N1CCN(c2ccc(F)cc2)CC1`, the survival is inactive: 72%.

With `COc1ccccc1C(=O)Nc1cccc(OCc2cc(=O)n3c4c(sc3n2)CCCC4)c1`, the survival is inactive: 70%.

In the case of `CCOc1ccc(C2C(C(N)=O)=C(C)Nc3nc(-c4ccc(OC)cc4)nn32)cc1` (stereo not given), the survival was inactive: 76%.

With `CC(C)c1ccc(S(=O)(=O)c2nnn3c2nc(NCc2cccs2)c2sccc23)cc1`, the survival is inactive: 76%.

As for `O=C(NCC(c1ccc2c(c1)OCO2)N1CCN(c2ccccc2)CC1)C(=O)Nc1ccccc1` (stereo not given), the survival is inactive: 71%.

In the case of `Cc1cc2ccccc2n1CCNC(=O)c1ccccc1F`, the survival is inactive: 81%.

Regarding `O=c1c2sc3ccccc3c2n(Cc2ccc(F)cc2)c(=O)n1Cc1ccco1`, the survival is inactive: 86%.

Turning to `O=C(OCc1cc(=O)n2nc(C3CC3)sc2n1)c1ccc(NC(=O)c2ccccc2Cl)cc1`, the survival is inactive: 99%.

Take `COc1ccc(C(=O)Nc2ccccc2)cc1S(=O)(=O)Nc1ccc(Br)cc1`: the survival is inactive: 83%.

Take `CCc1ccc2oc(C(=O)Nc3cc(Cl)ccc3OC)cc(=O)c2c1`: the survival is inactive: 80%.

As to `COc1ccc(-c2nnn(CC(=O)N(Cc3ccccc3)C(C)C(=O)NC3CCCC3)n2)cc1OC` (stereo not given), the survival was inactive: 103%.

On to `Cc1c(C(=O)Nc2ccccc2)sc2nc(-c3cc4ccccc4oc3=O)[nH]c(=O)c12`, for which the survival was inactive: 95%.

Consider `O=C(C1CCCN(S(=O)(=O)c2ccc(Cl)cc2)C1)N1CCCC1` (stereo not given), for which the survival is inactive: 105%.

Regarding `O=C(Nc1cccc(C(=O)N2CCN(c3ccccc3)CC2)c1)c1nsc2ccccc12`, the survival is inactive: 68%.

For the compound `CCc1ccc(C2=C(C)C(N3CCC(C(=O)Nc4ccc(F)cc4)CC3)=NS2(=O)=O)cc1`, the survival is inactive: 59%.

Turning to `O=C(Nc1ccc2nc(SCC(=O)N3CCCc4ccccc43)sc2c1)c1ccccc1F`, the survival is inactive: 83%.

Take `C=CCc1c(C)nc(-c2ccccc2)nc1NN`: the survival is inactive: 118%.

On to `Fc1ccc(Nc2nc(-c3cccc(Cl)c3)c3c(n2)-c2ccccc2OC3)cc1`, for which the survival was inactive: 100%.

On to `Cc1ccc(NC(=O)CCn2nc(-c3ccccc3)c3ccccc3c2=O)c(C)c1`, for which the survival was inactive: 75%.

As for `CC(C)n1c(SCC(=O)N2CCc3ccccc32)nc2c1c(=O)n(C)c(=O)n2C`, the survival is inactive: 106%.

As for `COc1ccc2c(c1)c1c(c(=O)n(-c3ccc(OC)c(OC)c3)c(=O)n1Cc1ccc(C)cc1)n2C`, the survival was inactive: 73%.

As for `COc1ccc(C2CC(=O)c3cnc4c(-c5ccccc5)c(C)nn4c3C2)c(OC)c1` (stereo not given), the survival is inactive: 71%.

Take `CCCCNC(=O)CCCn1c(=O)c2ccccc2n(Cc2ccc(Cl)cc2)c1=O`: the survival is inactive: 147%.

Take `Cc1[nH]c2ccccc2c1/C=C(\C#N)C(=O)NCc1ccco1`: the survival is inactive: 120%.

`CC(C)(C)OC(=O)N1CCC(c2c(C(=O)N3CCOCC3)cnn2-c2ccccc2Cl)CC1`: the survival is inactive: 77%.

For `COc1ccccc1CNC(=O)CCCn1c(=O)c2cccn2c2ccccc21`, the survival is inactive: 95%.

In the case of `Cc1cc2c(cc1C)-n1c(-c3ccccc3)c3c(=O)n(C)c(=O)n(C)c3c1C(c1ccco1)N2` (stereo not given), the survival is inactive: 88%.

On to `COc1ccc(-c2nc(SCC(=O)Nc3cccc(C(C)=O)c3)n[nH]2)cc1`, for which the survival is inactive: 133%.
